The structures appear in SMILES notation. Out of some 310,000 compounds screened, about 14,000 (4.5%) showed an effect of 50% or more. Effects have a minus sign here. The list shows a part of the results.
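Further: peak tail current of the secondary pulse compared with the same well before compound.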

human ether-à-go-go-related gene (hERG) potassium channel, sequence (Q12809 whole entry, looked up): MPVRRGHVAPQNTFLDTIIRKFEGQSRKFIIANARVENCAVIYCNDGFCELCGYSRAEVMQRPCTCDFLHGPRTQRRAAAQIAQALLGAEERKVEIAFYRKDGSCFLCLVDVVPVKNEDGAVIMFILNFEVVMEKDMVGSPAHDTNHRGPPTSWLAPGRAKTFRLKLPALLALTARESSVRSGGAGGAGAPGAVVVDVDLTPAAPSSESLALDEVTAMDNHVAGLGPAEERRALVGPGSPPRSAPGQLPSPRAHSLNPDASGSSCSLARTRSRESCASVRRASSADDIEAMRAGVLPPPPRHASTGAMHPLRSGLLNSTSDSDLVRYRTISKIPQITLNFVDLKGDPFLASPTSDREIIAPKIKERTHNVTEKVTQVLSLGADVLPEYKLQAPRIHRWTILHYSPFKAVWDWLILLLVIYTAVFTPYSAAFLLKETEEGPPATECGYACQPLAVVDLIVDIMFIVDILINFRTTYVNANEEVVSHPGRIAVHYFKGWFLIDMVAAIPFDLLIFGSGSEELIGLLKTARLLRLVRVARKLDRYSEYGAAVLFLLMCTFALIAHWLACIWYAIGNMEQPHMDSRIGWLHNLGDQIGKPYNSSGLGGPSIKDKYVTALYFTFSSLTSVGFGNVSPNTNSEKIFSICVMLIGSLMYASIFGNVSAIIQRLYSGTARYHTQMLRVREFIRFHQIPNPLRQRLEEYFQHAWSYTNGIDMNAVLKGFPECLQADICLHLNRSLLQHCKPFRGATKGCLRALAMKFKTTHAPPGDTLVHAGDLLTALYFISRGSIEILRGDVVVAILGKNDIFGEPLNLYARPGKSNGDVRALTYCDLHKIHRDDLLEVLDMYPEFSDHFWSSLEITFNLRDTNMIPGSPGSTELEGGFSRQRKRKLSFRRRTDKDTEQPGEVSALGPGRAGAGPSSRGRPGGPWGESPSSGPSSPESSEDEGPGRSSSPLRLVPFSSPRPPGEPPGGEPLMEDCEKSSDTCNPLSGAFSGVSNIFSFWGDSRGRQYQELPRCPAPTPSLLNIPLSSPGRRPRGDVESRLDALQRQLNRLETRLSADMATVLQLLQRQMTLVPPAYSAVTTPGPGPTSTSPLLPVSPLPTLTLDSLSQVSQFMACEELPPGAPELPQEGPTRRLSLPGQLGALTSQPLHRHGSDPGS

The assay addresses human ether-à-go-go-related gene (hERG) potassium channel (human, UniProt Q12809). Put plainly: primary screen, population patch clamp on CHO cells stably expressing hERG.
With `CCOC(=O)C1(Cc2ccc(Cl)cc2)CCN(C(C)Cc2ccc(O)c(OC)c2)CC1` (centres unmarked), the “hERG current change (%, negative = inhibition) at 10uM” value is listed as -70.8%.
Then `CCOc1cc(/C=N/NC(=O)CSc2nnc(C)s2)ccc1OCc1ccccc1Cl`, with -3.44%; and `Cc1cc(OCCCn2ccnc2)cc(C(C)C)c1`, with -14.4%.
The result for `Cc1ccc(S(=O)(=O)N(C)C)cc1NC(=O)C(C)OC(=O)C1CCCC1` (centres unmarked) reads -61.2%.
As for `CS(=O)(=O)N(CC(=O)NCc1ccccc1)C1CCCCC1`, the “hERG current change (%, negative = inhibition) at 10uM” value is -7.88%.
In the case of `COc1ccc(N2C(=O)C(CC(=O)Nc3ccc(F)cc3)N(CCc3cccs3)C2=O)cc1` (centres unmarked), the “hERG current change (%, negative = inhibition) at 10uM” value was -25.3%.
Then `COc1ccc2cc1Oc1ccc(cc1)C[C@H]1c3c(cc4c(c3Oc3cc5c(cc3OC)CCN(C)[C@@H]5C2)OCO4)CCN1C`, with -46.8%; and `Cc1cccc(N2C(=O)C3C4CC(=O)C(c5ccccc54)C3C2=O)c1C` (centres unmarked), with -3.65%; and `Cc1onc(-c2ccccc2Cl)c1C(=O)NCc1ccc(S(N)(=O)=O)cc1`, with 9.04%.
Then `CNc1ncc(C(=O)c2ccc(Cl)cc2)s1`, with 3.51%; and `Cn1c(=O)c(=O)n(C)c2cc(N3CCOCC3)c(NS(=O)(=O)c3ccc(Br)cc3)cc21`, with -27%; and `CCCCOC(=O)C1CN(c2ccccc2)N=C1C(=O)OCC` (centres unmarked), with -11.7%.
As for `CCOc1ccc(N(C)C(=O)CCc2nnc3ccc(NCc4ccco4)nn23)cc1`, the “hERG current change (%, negative = inhibition) at 10uM” value came out at 9.15%.
The result for `CCOc1ccc(Nc2nc(N)nc(CSC(=S)N3CCOCC3)n2)cc1` reads -2%; that for `CC(C)(O)P(=O)(O)CCc1ccccc1`, 26.2%.
The result for `Cc1ccccc1OCC(=O)N/N=C/c1cn(Cc2ccccc2)c2ccccc12` reads 10.5%; that for `CCCc1cc(=O)oc2c(C)c(O[C@@H]3O[C@H](CO)[C@@H](O)[C@H](O)[C@H]3O)ccc12`, 22.7%.
Then `Cc1ccc(-c2nc3ncccc3o2)cc1N`, with 10.7%.
As for `C/C(Cc1ccccc1)=N\NC(=O)c1cc(C(C)(C)C)[nH]n1`, the “hERG current change (%, negative = inhibition) at 10uM” value is recorded as -7.49%.
Turning to `O=C(Nc1ccc(OCC(=O)N2CCOCC2)cc1)c1cc(F)c(F)cc1Cl`, the “hERG current change (%, negative = inhibition) at 10uM” value turned out to be 13.7%.
For `CSc1nc(SCC(N)=O)c2c3c(sc2n1)CN(C)CC3`, the “hERG current change (%, negative = inhibition) at 10uM” value is given as -0.306%.
Consider `COCC(=O)Nc1cc(=O)n(C)c(=O)n1C`, for which the “hERG current change (%, negative = inhibition) at 10uM” value came to 4.94%.
Then `O=C1NCC2=C1C(c1ccccc1)Nc1ccccc1N2` (centres unmarked), with 11.3%; and `O=C(CCCn1cnc([N+](=O)[O-])n1)Nc1ccc(Cl)c(Cl)c1`, with -29.8%.
Turning to `CCSc1nnc(-c2cnn(-c3ccccc3)c2-n2cccc2)n1C`, the “hERG current change (%, negative = inhibition) at 10uM” value was -12.9%.
Then `Cc1cc(NC(=O)Cn2c(=O)c3c(ncn3CC(C)C)n(Cc3ccccc3)c2=O)no1`, with -4.71%.
Then `O=C(OCC(=O)N1CCC(Cc2ccccc2)CC1)c1ccccc1NCCO`, with -33.3%.
For the molecule `Cc1ccc(-c2c(C(=O)N/N=C/c3sccc3C)nnn2-c2nonc2N)cc1`, the “hERG current change (%, negative = inhibition) at 10uM” value is reported as 20.5%.
Turning to `Cc1ccc(-c2cc(C(=O)N/N=C/c3ccc(Cl)cc3)n[nH]2)o1`, the “hERG current change (%, negative = inhibition) at 10uM” value is 3.49%.
Then `CN1CCN(C(=O)CN(CCc2ccccc2)S(C)(=O)=O)CC1`, with 11%.
For `Cc1ccc(C)c(NC(=O)CSc2nc3ccc(N4C(=O)c5ccccc5C4=O)cc3s2)c1`, the “hERG current change (%, negative = inhibition) at 10uM” value was determined as 12.7%.
On to `Cc1ccc(CNC(=O)COC(=O)c2cnc(C)cn2)cc1`, for which the “hERG current change (%, negative = inhibition) at 10uM” value stood at 1.47%.
Then `CCCN1CCN(CCCNC(=O)c2ccc3c(Cl)c4c(nc3c2)CCCC4)CC1`, with -61.1%; and `NC(=O)CNC(=O)c1ccc(Cl)cc1`, with 22.7%; and `CCC(C(=O)O/N=C(\N)c1cccc(C)c1)c1ccccc1` (centres unmarked), with 7.28%.
Take `COc1cc(CCCN2C(=S)NC[C@@H]2CC2CCCCC2)cc(OC)c1OC`: the “hERG current change (%, negative = inhibition) at 10uM” value is -1.89%.
Then `CC(C)(C)C(=O)Nc1nnc(CSCc2ccccc2F)s1`, with -6.48%; and `O=C(CN1c2ccccc2Sc2ccccc21)NNC(=O)Nc1cccc(Cl)c1`, with 2.84%; and `COc1ccc(/C=N\NC(=O)c2cccc(F)c2)cc1COc1ccccc1`, with 19.5%.
Consider `O=C1CCC(=O)N1Cc1c(Cl)cccc1Cl`, for which the “hERG current change (%, negative = inhibition) at 10uM” value was 19.8%.
For the molecule `O=C(O)C1CCN(C(=O)CSc2nc3ccccc3c(=O)n2-c2ccc(Cl)cc2)CC1`, the “hERG current change (%, negative = inhibition) at 10uM” value was found to be 25.4%.
The result for `Cn1c(CN2CCC(C(N)=O)CC2)c(C#N)c2ccccc21` reads -0.933%; that for `CC(=O)c1cc(C#N)c(SCc2ccccc2C#N)nc1C`, 9.53%.
Then `COc1cc(OC)cc(C(=O)N[C@H](C(=O)Nc2cc(C)cc(C)c2)C(C)C)c1`, with -54.7%; and `CCOc1ccc(Cc2nnc(SCC(=O)Nc3c(C)cccc3C)[nH]c2=O)cc1`, with 3.96%.
Then `Cn1cc(CN2CCCC(CO)(Cc3cccc(Cl)c3)C2)cn1` (centres unmarked), with -17.1%; and `Cc1ccc(-c2cc(C(=O)Nc3cnn(C(C)C)c3)no2)cc1`, with 8.89%; and `CSC1=NCCN1S(=O)(=O)c1ccc(Cl)cc1`, with -9.47%.
In the case of `Cc1ccc(C(=O)N/N=C\c2ccc(OC(=O)c3cccc(F)c3)cc2)cn1`, the “hERG current change (%, negative = inhibition) at 10uM” value amounted to 11%.
The result for `O=C(NCCN1CCNCC1)c1ccccc1O` reads 6.74%.
The result for `Cc1cc2nc3n(c2cc1C)CC1CC(C(=O)NCc2ccccc2)N(C)C31` (centres unmarked) reads -31.4%.
The result for `CCOc1ccc2nc(N(CCN(C)C)C(=O)c3ccc4ccccc4c3)sc2c1.Cl` reads 4.67%.
For `S=C(NCc1ccco1)Nc1ccc(Br)cn1`, the “hERG current change (%, negative = inhibition) at 10uM” value amounted to 6.67%.
The result for `O=C(NCc1ccccc1)C1c2ccccc2Oc2ccccc21` reads 7.83%.
The result for `Cc1ccc(CN2CC(C(=O)Nc3cc(C)ccn3)CC2=O)cc1` (centres unmarked) reads 0.197%; that for `CCCn1c(N)c(N(CCOC)C(=O)c2cccc(S(=O)(=O)N3CCCc4ccccc43)c2)c(=O)[nH]c1=O`, 3.29%.
The result for `CCOC(=O)N1CCC(NC(=O)c2cc(C(=O)Nc3ccc(OC)c(OC)c3)ccc2CO)CC1` reads 6.11%.
For the molecule `C=CCC1(CC=C)CCCN1C(=O)CC1C(=O)NCCN1Cc1ccc(OC)c(OC)c1` (centres unmarked), the “hERG current change (%, negative = inhibition) at 10uM” value is listed as -2.96%.
The result for `CC1CCN(S(=O)(=O)c2ccc3c(c2)c(=O)c(C(=O)NCc2ccccc2Cl)cn3C)CC1` reads 13.9%; that for `CC1CC(C)CN(c2ncc3c(n2)CC(c2ccccc2Cl)CC3=O)C1` (centres unmarked), 21.9%.
As for `CC(C)C(=O)NC(c1ccccc1Cl)c1c(O)ccc2ccccc12` (centres unmarked), the “hERG current change (%, negative = inhibition) at 10uM” value is 7.79%.
As to `CCOC(=O)CCCNC(=O)CN1C(=O)NC2(CCCCCC2)C1=O`, the “hERG current change (%, negative = inhibition) at 10uM” value is on record as 11.3%.
The result for `C=CCc1ccc(OCC(O)CN2CCN(Cc3ccccc3)CC2)c(OC)c1.Cl` (centres unmarked) reads -77%; that for `Cc1cc(C)c(S(=O)(=O)c2ccc(Cl)cc2)c(Cl)n1`, -2.99%; that for `CCn1c(SCC(=O)Nc2cccc(OC)c2)nc2c(c1=O)SCC2`, -36%.
The result for `COc1ccc(C(=O)N2CCCCCCC2)cc1OC1CCN(C(C)C)CC1` reads -7.39%; that for `CCOC(=O)c1ccc(Nc2nc(C)cc(=O)[nH]2)cc1`, 3.62%.
Regarding `CCOC(=O)C1C(c2ccccc2O)NC(=O)NC1(O)C(F)(F)F` (centres unmarked), the “hERG current change (%, negative = inhibition) at 10uM” value was 16.9%.
The result for `CCS(=O)(=O)N1Cc2ccccc2CC1C(=O)Nc1nnc(C2CC2)s1` (centres unmarked) reads -7.05%; that for `CN(C)C=O.CN(C)c1ccc(/C=C/c2nc3ccccc3c(=O)n2-c2ccc(C(=O)O)cc2)cc1`, 19.8%.
As to `Cc1cc(=O)oc2cc(NC(=O)c3ccc(OC(F)F)cc3)ccc12`, the “hERG current change (%, negative = inhibition) at 10uM” value amounted to 3.2%.
The result for `COc1cccc(CNC(=O)c2cc(S(=O)(=O)N3CCOCC3)cn2C)c1` reads -0.819%; that for `COc1ccccc1NC(=O)C(=O)N1N=C(C(C)C)CC1(O)C(F)(F)F` (centres unmarked), 11.5%.
Turning to `COc1ccc(OCC(=O)Nc2ccc(Cl)cc2C(=O)c2ccccc2)cc1`, the “hERG current change (%, negative = inhibition) at 10uM” value amounted to 10.4%.
The result for `COc1ccc(NC(=O)COC(=O)CN2C(=O)NC(C)(C)C2=O)cc1` reads 2.55%; that for `CC(=O)Nc1ccc(NC(C)=C(C#N)C#N)cc1`, 15.8%.
Then `Cc1ccc2nc(C(C)O)[nH]c2c1` (centres unmarked), with 17.3%; and `Cc1cc(NC(=O)C(C)C)ncc1NC(=O)c1ccco1`, with -2.61%; and `CCOC(=O)N1CCN(S(=O)(=O)c2ccc(OCC(=O)OC)c(Cl)c2)CC1`, with -16.7%.
Consider `Cc1ccc2oc(-c3ccc(NC(=O)CC(C)C)cc3)nc2c1`, for which the “hERG current change (%, negative = inhibition) at 10uM” value stood at 3.21%.
Turning to `C/C(=N\NS(=O)(=O)c1ccc([N+](=O)[O-])cc1)c1c[nH]c2ccccc12`, the “hERG current change (%, negative = inhibition) at 10uM” value turned out to be 0.605%.
Then `CCN(CC)CCOc1ccccc1C(C)=O.O=C(O)C(=O)O`, with 6.73%; and `O=c1cccc(-c2ccccc2)[nH]1`, with -2.53%.
With `CCCNC(=O)c1cc2c3ccccc3n(C)c2s1`, the “hERG current change (%, negative = inhibition) at 10uM” value is on record as -29.5%.
The result for `Cc1cc(=O)oc2cc(Oc3ncccc3[N+](=O)[O-])ccc12` reads 1.68%.
Then `CC(=O)c1ccc(NC(=O)CSc2nnc(C3CC3)n2C)cc1`, with 5.6%; and `Cc1cc(NC(=O)CC2Oc3ccccc3NC2=O)ccc1Br` (centres unmarked), with 18%; and `Cc1cc(Cl)cc(Cl)c1OCC(=O)NCc1ccco1`, with 3.5%.
Consider `CCC(=O)c1ccc(N2CCCC2)c(F)c1`, for which the “hERG current change (%, negative = inhibition) at 10uM” value stood at 6.95%.

The values above are taken from paper PMC4336329 (PLoS ONE, 2015).
